Some of the results follow. Many values rest on one well or one pass, so single values are uncertain.
System: Candida albicans DPL-15
Experiment: growth (OD600) after compound treatment (apparently relative to screen median) (relative growth (fraction; screen median 1.02)); DPL-15 is a caspofungin-resistant clinical isolate; higher = more fungal growth (less antifungal activity)
Details: 25 µM; RPMI 1640; 48 h; 30 °C

Compound | growth
CCc1ccccc1-n1nc2c(c1C(C)C)C(c1ccc(Br)cc1)NC2=O (stereo unspecified) | 0.851
Cc1n[nH]c2c1C(c1ccc3c(c1)OCO3)N(Cc1ccccc1)C2=O (stereo unspecified) | 0.947
COC(=O)C1=C(C)N(Cc2ccccc2)C(NCCc2c[nH]c3ccccc23)=N[C@H]1c1cccc(F)c1 | 0.983
COCOc1cc(OC)c(OC)c2cc3oc(C)cc(=O)c3c(OC)c12 | 0.998
COC(=O)Cc1nnn2c1[C@@H](C)[C@@H](c1ccccc1Br)OC[C@H](C)C2 | 0.785
C#CCOC[C@@H](NC(=O)[C@@H]1C[C@@H](O)CN1)c1ccccc1 | 1.17
COc1ccc(C2NC(=O)N3CCC=CC3=C2C(C)=O)cc1Br (stereo unspecified) | 1.04
COc1ccc([C@@]23Oc4cc(OC)cc(OC)c4O[C@@]2(c2cccn2C)c2nc4n(c(=O)c2[C@H]3c2ccccc2)CCC4)cc1 | 0.747
COc1ccc(C2CC(c3ccccc3)=CC2=O)cc1 (stereo unspecified) | 1.07
CC(C)CCCC(C)NS(=O)(=O)NC(C)(C)C (stereo unspecified) | 1.17
COc1ccc(N2C(=O)C3=C(C(CC(C)C)=NCCN3)C2c2ccc3c(c2)OCO3)cc1 (stereo unspecified) | 0.878
COC(=O)[C@@H]1[C@@H](c2ccccc2)[C@]2(c3ccc(OC)cc3)Oc3cc(OC)cc(OC)c3[C@@]23NC(C(C)C)=N[C@@]13O | 0.998
CS(=O)(=O)Oc1c(CC23CCCCC2=Nc2ccc(C(F)(F)F)cc23)occc1=O (stereo unspecified) | 1.22
COCCN1Cc2cc(C(=O)OC)c3c(c2C1=O)c1cc(OC)ccc1n3S(=O)(=O)c1ccc(F)cc1 | 0.986
C=CC[C@H]1CC2=C(OC)C(CC=C)(CC=C)C(=O)C(C(=O)c3ccccc3)=C2OC1(C)C | 0.919
C#CCOCCOCCNC(=O)CCCn1c(-c2ccccc2)nc2c(c1=O)[C@@H](c1ccccc1)[C@]1(c3ccc(OC)cc3)Oc3cc(OC)cc(OC)c3[C@]21O | 1.02
CC(=O)N[C@@H]1CCN(C(=O)c2c(O)cc(O)cc2Nc2cnn(C)c2)C1 | 1.13
CC(=O)C1=C2C=CCCN2C(=O)NC1c1ccc2c(c1)OCCO2 (stereo unspecified) | 1.04
C=CCN1C(=O)C2=C(C(c3ccccc3)=NCCN2C)C1c1ccc(F)cc1 (stereo unspecified) | 0.952
C=CCOC(=O)NC(c1ccc(F)c(F)c1)S(=O)(=O)c1ccc(Cl)cc1 (stereo unspecified) | 1.15
CCN1C(=O)[C@H]2C[C@@]13O[C@H](C1CCNCC1)N=C3C[C@H](c1ccccc1)[C@H]2C | 1.05

Compound | growth
COC(=O)N1C(C2CC2)=Cc2ccccc2C1CC(C)=O (stereo unspecified) | 1.17
C[C@@H](NS(=O)(=O)OCCCc1ccccc1)c1ccccc1 | 0.81
CCC1=Nc2ccccc2C1(C)Cc1occc(=O)c1O (stereo unspecified) | 1.06
COC(=O)C1C(=O)C(C)(Cl)C(=O)C(C)=C1C (stereo unspecified) | 1.02
C#CCC(C)(C)CNC(=O)C(O)CNC(=O)c1cccc(/C=N/NS(=O)(=O)c2ccc(C)cc2)c1 (stereo unspecified) | 1.03
COC(=O)C1=C(C)[C@@]2(C)C[C@H]3C(C)(C)CCC[C@]3(C)[C@@](C)(C1=O)C2=O | 1.08
Cc1nn(C)c2c1C(c1ccccc1)NC2=O (stereo unspecified) | 0.997
COC(=O)[C@@]1(/C=C2/c3ccc(F)cc3[C@@H](OC)[C@@H]2C)[C@@H]2CC=C[C@@H]21 | 1.02
COC(=O)C/C=C/[C@@H](C)[C@H](NC(=O)[C@H](N)C(C)C)c1ccccc1 | 1.09
CC/C=C\CCOS(=O)(=O)NC(C)C | 0.782
COC(=O)Cc1nnn2c1[C@H](C)[C@@H](OC)c1cccc(Cl)c1-2 | 1.03
CN(Cc1ccncc1)CC1CCCN(CCc2ccccc2)C1 (stereo unspecified) | 0.893
Cc1ccc(S(=O)(=O)N2CCCc3nc(C)c(C)cc32)cc1 | 0.914
COC(=O)Cc1nnn2c1[C@H](C)[C@H](c1ccccc1Br)OC[C@@H]2c1ccccc1 | 0.928
COC(=O)C1=C(C)N(Cc2ccc(F)cc2)C(=S)NC1c1ccc(Br)cc1 (stereo unspecified) | 0.931
CCCOS(=O)(=O)NC(C)(C)C | 1.03
COc1ccc(N2C(=O)C3=C(C(c4ccccc4)=NCCN3)C2c2ccc(F)cc2)cc1 (stereo unspecified) | 1.03
CC(C)[C@H]1CC[C@H](C)C[C@@H]1OS(=O)(=O)Nc1cncnc1 | 1.15
COC(=O)[C@H]1[C@H](C(=O)OC)[C@@H](c2ccc(OC)c(OC)c2OC)[C@@H]1c1ccc(OC)c(OC)c1OC | 0.916
CO[C@@H]1[C@H](O)CC[C@]2(O)CN(Cc3cccc4ccccc34)[C@](C)([C@H](O)CC=C(C)C)[C@@H]12 | 1.13
COC(=O)C1=C(CCl)NC(=O)N(C(C)=O)C1c1cccc(C#N)c1 (stereo unspecified) | 1.11

Compound | growth
COC(=O)CCCn1c(-c2ccccc2)nc2c(c1=O)[C@H](c1ccccc1)[C@]1(c3ccc(OC)cc3)Oc3cc(OC)cc(OC)c3[C@]21O | 1.11
CC1=C[C@H](COc2ccc(Br)cc2)O[C@]2(C1)C(=O)Nc1cc(F)ccc12 | 0.863
C=CCN1C(=O)C2=C(C(c3ccccc3)=NCCN2)C1c1ccc(C)cc1 (stereo unspecified) | 1.06
c1ccc(CCCc2cc3ccccc3c(CCCc3ccccc3)n2)cc1 | 1.08
C[C@H]1/C=C/CC(=O)OCCC(Oc2ccccc2)C(=O)N[C@@H](Cc2c[nH]c3ccccc23)C(=O)N[C@H]1c1ccccc1 (stereo partly specified) | 0.896
COC(=O)C1=C(C)N(Cc2ccc(Cl)cc2)C(=S)NC1c1ccccc1 (stereo unspecified) | 0.896
COc1ccc2c(c1)[C@@H](NC(=O)Nc1ccccc1)[C@H](C)[C@H]2c1ccccc1 | 1.18
O=S(=O)(N1CCc2nc(-c3ccccc3)c(-c3ccccc3)cc2C1)C(F)(F)F | 1.21
COc1cc2c(cc1OC)[C@@H]1O[C@](CCCN3C(=O)c4ccccc4C3=O)(C2)OC2=C1C(=O)CC(C)(C)C2 | 1.01
CCN1C(NCC(C)C)=NC(c2ccc(Cl)cc2)C(C(=O)OC)=C1C (stereo unspecified) | 0.897
O=C1OC2(CCCCC2)CC2=C1[C@H]1O[C@](CCCCN3C(=O)c4ccccc4C3=O)(Cc3ccccc31)O2 | 0.98
COc1ccc([C@@H]2[C@@H](C(=O)NCC3CC3)[C@@H](C(=O)NCC3CC3)[C@@H]2c2ccc(OC)c(OC)c2)cc1OC | 1.12
Cc1cc(C)cc(-n2nc3c(c2-c2ccccc2)C(c2ccccc2)NC3=O)c1 (stereo unspecified) | 0.922
COc1ccc(N2C(=O)C3=C(C(c4ccccc4)=NCC(C)(C)N3)C2c2ccc(Br)cc2)cc1 (stereo unspecified) | 0.915
C[C@H]1C[C@H]2CC(=O)N[C@@H](Cc3c[nH]c4ccccc34)C(=O)N2[C@H]1c1ccccc1 | 0.973
CC(C)c1c2c(nn1Cc1ccccc1)C(=O)NC2c1ccc(Br)cc1 (stereo unspecified) | 1.19
COC(=O)c1cc(OC)c(Cl)c(O)c1OC | 1.04
COC(=O)[C@@]12Oc3cccc(O)c3C(OC)=C1C(=O)CC[C@H]2O | 1.05
COc1cccc(C#C[C@@H]2C=C[C@H](OC(C)=O)[C@@H](COC(C)=O)O2)c1 | 0.874
CCCC[C@H](C)OS(=O)(=O)NC(C)(C)C | 1.11
[N-]=[N+]=Nc1cc(O)cc(O)c1C(=O)N1Cc2cn[nH]c2C1 | 1.07

Compound | growth
COC(=O)[C@]12C[C@@H](C)[C@@H]3[C@@H](C)[C@H](c4ccccc4[C@H]31)N2C(=O)C(F)(F)F | 0.965
CC(C)Cc1n[nH]c2c1C(c1ccc(F)cc1)N(c1ccc(F)cc1F)C2=O (stereo unspecified) | 0.933
COC(=O)C1=C(C)N(Cc2ccc(Br)cc2)C(=S)NC1c1ccc(F)cc1 (stereo unspecified) | 0.982
CCCCCN(C(=O)OC(C)(C)C)S(=O)(=O)Nc1ccc(C(F)(F)F)cc1 | 1.23
CCNC(=O)OC[C@H]1O[C@H](C#Cc2ccc(C(C)(C)C)cc2)C=C[C@H]1O | 1.02
CC(=O)C1=C(C)NC(=O)NC1c1ccc(Br)cc1 (stereo unspecified) | 1.04
CCN(CC)C(=O)c1c(O)cc(O)cc1CC(=O)CC(C)(C)C | 0.968
CC1=NCCN(C)C2=C1C(c1cccc(C(F)(F)F)c1)N(c1ccccc1)C2=O (stereo unspecified) | 0.942
CC(C)Cc1c2c(nn1Cc1ccccc1)C(=O)NC2c1ccccc1 (stereo unspecified) | 1.15
CCN1C(=S)NC(c2cccc(OC)c2)C(C(=O)OC)=C1C (stereo unspecified) | 1.08
Cc1cc2c(nc1C)CCCN2C | 1.01
C[C@H]1C[C@H]2CC(=O)N(C)[C@@H](Cc3ccccc3)C(=O)N2[C@H]1c1cccc(Br)c1 | 1.1
COC(=O)C1=C(C(=O)OC)[C@@H]2N(C)c3ccccc3[C@@]23C[C@@H](CO)N(C(=O)C2CCC2)C3=N1 | 0.991
COC(=O)C/C=C/[C@H](C)[C@@H](NC(=O)[C@H](CC(=O)OCc1ccccc1)NC(=O)OC(C)(C)C)c1ccccc1 | 1.01
COC(=O)N[C@@H](c1ccc2ccccc2c1)C(C(C)=O)C(=O)OC (stereo partly specified) | 0.94
C=CCC1=C(OC)[C@@]2(CC=C)C[C@@H]3[C@@H](c4ccc(OC)cc4)[C@](O)(c4ccccc4)[C@]3(C1=O)C2=O | 1.11
COC(=O)c1nnc(C(=O)OC)c2[nH]c(-c3ccccc3)nc12 | 1.06
Cc1cc(C)cc(-n2nc(C)c3c2C(=O)NC3c2ccccc2)c1 (stereo unspecified) | 0.968

From the supplement of paper PMC10986608
